Measured values reported in PubChem BioAssay AID1508623 (National Center for Advancing Translational Sciences (NCATS), 2021).
Out of some 48,000 compounds screened, about 450 (0.94%) were called active. About 19% were inconclusive and are not listed. The call rests on the fitted dose curve; in most records, active means well fitted inhibition curve with a large enough effect; inconclusive means small, poorly fitted or top-dose-only effect; inactive means no such curve, though single readings can be large or run the other way. Some of the results follow.

Assay: Primary qHTS for Identification of Small Molecule Inhibitors of Huntingtin Promoter Activity; further: nearly all actives have a fitted effect of over 50% in size
Conditions: HEK293 HTT promoter firefly luciferase reporter (activity 0% = vehicle and -100% = no light), 24 h; series mostly up to 57.5 µM; activity change, negative = inhibition: at the top concentration
How it was run: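 HEK293 luciferase promoter-reporter cells (2,500/well) plated 24 h, then compounds added at up to 57.5 uM final for 24 h at 37 °C. Firefly luminescence by Dual-Glo, normalized to vehicle (0%) and zero RLU (-100%).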

Activity change, negative = inhibition, inactive:
CCCN(C(=O)C1CCN(S(=O)(=O)c2c(C)noc2/C=C/c2ccc(C)cc2)CC1)c1ccccc1F -24.8%
CCN1CCOC(=O)C1CC(=O)Nc1ccccc1C(F)(F)F (stereo unspecified) -0.717%
Cc1cccc(NC(=O)C2CCC(CNS(=O)(=O)c3ccc4c(c3)CCCC(=O)N4)CC2)c1C (stereo unspecified) -30.1%
CC(=O)c1ccc(NC(=O)c2cccc(NC(=O)N3CCSc4ncccc43)c2)cc1 -18.8%
Cc1cc(C)cc(N(C)S(=O)(=O)c2nnc(NC(=O)COc3ccc(C)c(C)c3)s2)c1 -13.3%
CCOCCCNC(=O)c1c(NC(=O)Cc2coc3c(C)c(C)ccc23)sc2c1CCC2 -28.9%
CCCN(Cc1cc2cc(C)ccc2[nH]c1=O)C(=O)c1cccc(Cl)c1 -15.3%
COc1cc(OC)c(NC(=O)COc2ccccc2-c2nnc(-c3ccccc3)o2)cc1Cl -24%
CCCCCCCCCCCCCCCCCCO 10.7%
CCc1ccccc1Nc1nn2c(=O)c3ccc(C(=O)NCCc4ccccc4)cc3nc2s1 -27%
Cc1cccc(C(=O)NC2(C(F)(F)F)N=C(c3ccccc3)N(Cc3ccccc3)C2=O)c1 (stereo unspecified) -1.3%
Cc1c(Cl)cccc1NC(=O)CN1C(=O)c2ccccc2Sc2ncccc21 -27.1%
Cc1ccc(-c2c(CN3CCN(c4cc(Cl)ccc4C)CC3)csc2C)cc1 -9.64%
CC(=O)N1CCc2c(sc3c2c(=O)n(-c2ccccc2Cl)c(=O)n3C)C1 17.2%
O=C(CSc1nc2ccccc2n1CC(=O)Nc1ccc(F)cc1F)Nc1ccc(F)cc1 -20.2%
CCOc1ccc2c(c1)c(=O)c(S(=O)(=O)c1ccc(C)cc1)cn2CC(=O)Nc1ccc(C)cc1 -23.4%
COc1ccc(-n2c(SCc3nc(-c4ccc(C)cc4)no3)nnc2-c2ccncc2)cc1 -28.1%
COCCCN1CCc2nc(SCC(=O)Nc3ccc(C)c(Cl)c3)[nH]c(=O)c2C1 -11%
CCn1c(=O)c2cc(C(=O)NCCc3cccc(C)c3)sc2c2ccccc21 2.01%
COc1ccccc1OCCn1c(NC(=O)c2ccccc2)nc2ccccc21 6.93%
Cc1ccc(NC(=O)C2CCN(c3ncccn3)CC2)cc1F -2.97%
CCc1cc2cc(OC)c(OC)cc2c(Cc2ccccc2)n1 -1.27%
CCOc1ccccc1NC(=O)C(C)n1nnc2sc3c(c2c1=O)CCCC3 (stereo unspecified) 4.28%
O=C(O)CNC(=O)CNC(=O)CNC(=O)CSC(=O)c1ccccc1 -0.736%
CC1(C)S[C@@H]2[C@H](N=CN3CCCCCC3)C(=O)N2[C@H]1C(=O)O -0.401%
Cc1ccc(CCNC(=O)c2ccc(Cn3c(=O)c4cccn4c4cccnc43)cc2)cc1 -16.5%
Cc1ccc(-n2c(SCC(N)=O)nc3c(oc4ccccc43)c2=O)cc1 -29.9%
CCn1c(CNC(=O)C23CC4CC(CC(C4)C2)C3)nnc1SCC(=O)Nc1ccc(OC)cc1 -16.3%
O=C(O)c1cccc(NC(=O)c2cccc(S(=O)(=O)Nc3cccc(F)c3)c2)c1 0.256%
Cc1ccc(N2CCN(c3nc4ccccc4n4nnnc34)CC2)c(C)c1 16%
COc1cccc(C(=O)Nc2ccccc2SCc2cc(=O)c3cccc(C)c3[nH]2)c1 5.48%
Cc1cc(C)cc(NC(=O)c2cc(S(=O)(=O)N3CCOCC3)cn2C)c1 -2.02%
Cc1ccc(Cl)cc1N1CCN(C(=O)c2cnn(-c3ccc(Cl)cc3)c2C2CCNCC2)CC1 -23.1%
N#Cc1c[nH]n2c(NC3CCCC3)c(-c3ccc(Br)cc3)nc12 -28.6%
CCOc1ccc(C2c3c(oc4ccccc4c3=O)C(=O)N2Cc2ccc3c(c2)OCO3)cc1 (stereo unspecified) -7.71%
Cc1ccc(Nc2c(-c3ccc(N4CCOCC4)cc3)nc3ccc(Cl)cn23)cc1 7.65%
Cc1cc2c(cc1S(=O)(=O)N1CCC(C(N)=O)CC1)OCC(=O)N2 6.56%
Cc1cc(C)c(NC(=O)Cn2nnc(-c3nc(-c4ccncc4)no3)c2N)c(C)c1 -0.941%
O=C(CSc1nc2c([nH]c3ccccc32)c(=O)n1-c1cccc(C(F)(F)F)c1)N1CCCC1 -10.9%
CCOC(=O)c1cccc(NC(=O)C2(S(=O)(=O)c3ccc(C)cc3)CC2)c1 -0.7%
COc1cn(CC(=O)Nc2ccc(C)cc2C)c(CN2CCCCC2)cc1=O -19.8%
COc1cccc(C(=O)Nc2ccc(-c3nc4ccc(C)cc4s3)cc2)c1OC 1.46%
CCOc1cccc(C2c3c(oc4ccc(F)cc4c3=O)C(=O)N2CCOC)c1 (stereo unspecified) -1%
CCCNC(=O)C1CCC(Cn2c(=O)c3sccc3n(CC(=O)N3CCCC(C)C3)c2=O)CC1 (stereo unspecified) 7.24%
CC(=O)C1=C(c2ccc(C)cc2)N(C(C)=O)n2c(nnc2-c2ccccc2)S1 -10.3%
COc1ccc(S(=O)(=O)NCC(c2ccc(N(C)C)cc2)N2CCCC2)cc1F (stereo unspecified) -8.03%
Cc1ccc(Cl)cc1N1CCN(S(=O)(=O)c2ccc3oc(=O)c4ncn(C)c4c3c2)CC1 -7.61%
Cc1ccccc1Cn1cc(NC(=O)c2cc(-c3ccc(Cl)cc3)on2)cn1 -2.17%
Cc1cccc(OCC(=O)NCC2(N3CCN(C)CC3)CCCCC2)c1 -6.56%
Cc1[nH]c2ccc(C(=O)NCCc3ccccc3Cl)cc2c1C 33.7%
Cc1cccc(NC(=O)CN2C(=O)COc3ccc(S(=O)(=O)Nc4ccccc4)cc32)c1C -18.2%
CCCS(=O)(=O)N1CC(=O)N(c2ccccc2C)C(C)(C(=O)NC2CCCCC2)C1 (stereo unspecified) 0.0135%
CC(C)OCCCn1c(=O)c2ccccc2n2c(-c3ccc(F)c(F)c3)nnc12 -4.2%
CCC1CN(C(=O)N2CCC(C(=O)NCc3ccc(C)o3)CC2)c2ccccc2O1 (stereo unspecified) -9.08%
COc1ccc(Nc2cc(C(=O)NCc3ccccc3)c3ccccc3n2)cc1 -4.17%
O=C(Nc1cccc(-c2nc3cc(Cl)ccc3o2)c1)c1ccc(F)cc1 2.94%
O=C(Cn1c(=O)n(Cc2ccc(F)cc2)c(=O)c2sc3ccccc3c21)NCc1ccccc1 -14%
Cc1ccc(NC(=O)C2CCC(CNS(=O)(=O)c3cccc4nsnc34)CC2)c(C)c1 (stereo unspecified) -5.2%
COc1ccc(-c2nc3sc(CCNC(=O)C(=O)Nc4ccc(C)cc4C)c(C)n3n2)cc1 -24.3%
Cc1nc2ccc(S(=O)(=O)N(CC(=O)Nc3cccc(C)c3C)Cc3ccccc3)cc2s1 -23.2%
Cc1ccc(C)c(Cn2c(C(C)NC(=O)c3ccccc3)nc3ccccc32)c1 (stereo unspecified) -3.45%
COc1cccc(OCc2nc3ccccc3n2C)c1 100%
O=C(CCn1cnc2onc(-c3ccc(F)cc3)c2c1=O)N1CCN(c2ccccc2)CC1 -11.2%
O=C(CSC1=Nc2ccccc2C2=NC(Cc3ccccc3)C(=O)N12)Nc1ccccc1 (stereo unspecified) -21.1%
O=C(NCc1noc2ccccc12)N1CCN(c2ccccc2F)CC1 -4.66%
CCOc1cccc2cc(-c3nc(-c4ccc(Cl)cc4)c(C)s3)c(=O)oc12 -6.44%
COc1ccc(Cn2c(CCC(=O)Nc3cccc(Cl)c3)nc3cccnc32)cc1 -27.9%
Cc1nc(N2CCOCC2)c2c(C(=O)N3CCN(c4ccc(Cl)cc4)CC3)c(C)oc2n1 -11%
CCOc1ccc(C(c2c(C)[nH]n(-c3ccccc3)c2=O)c2c(C)[nH]n(-c3ccccc3)c2=O)cc1OC -29.3%
COc1ccc(-c2nsc(NC(=O)c3cccc(OC)c3)n2)cc1 -22.6%
CCc1ccc(-c2cn3c(n2)sc2cc(C(=O)NCCCc4ccccc4)ccc23)cc1 -1.44%
CCOc1ccccc1CNC(=O)c1ccc2nc(CCc3ccccc3)oc2c1 -26.4%
CCc1nn2c(=O)cc(COC(=O)c3cccs3)nc2s1 53.8%
COC(=O)c1ccc(CN(Cc2ccc(OC)c(OC)c2)S(=O)(=O)c2ccc(F)c(C(=O)Nc3cc(C)ccc3C)c2)cc1 -11.5%
C[C@]12CCC(=O)C=C1CC[C@@H]1[C@@H]2C(=O)C[C@@]2(C)[C@H]1CC[C@]2(O)C(=O)CO 8.9%
CCOc1ccccc1NC(=O)CN1Cc2ccccc2C1=O -15.9%
CC(Oc1ccccc1)C(=O)Nc1ccc(C(=O)OCc2cc(=O)n3ccsc3n2)cc1 (stereo unspecified) -24%
Cc1cccc(C(=O)NCC(=O)OCc2cc(=O)n3nc(C)sc3n2)c1 8.36%
N#Cc1nc(/C=C/c2ccc(F)cc2)oc1N1CCCCC1 -5.8%
Cc1cccc(Nc2cc(C)nc3nc(Cc4ccc(Cl)cc4)nn23)c1 -21.2%
CCCOc1ccccc1C(=O)Nc1ccc(-c2nc3ccc(C)cc3s2)cc1 -15.1%
Cc1cc(-c2ccccc2)nc2cc(C(=O)Nc3cc(C(F)(F)F)ccc3Cl)nn12 9%
COc1ccc(CNC(=O)c2ccc3c(Cl)c4c(nc3c2)CCCC4)c(OC)c1 -12.6%
Cc1nc(SCC(=O)Nc2ccc(Cl)cc2C(F)(F)F)[nH]c(=O)c1Cc1ccccc1 -9.18%
Cc1ccc(Cn2cc3c(n2)-c2c(oc(C(=O)Nc4ccc(F)cc4F)c2C)CC3)cc1 -0.951%
CCN(Cc1ccccc1)Cc1c(O)ccc2c(=O)c(-c3ccccc3Cl)coc12 -24.4%
CCn1cc(C(=O)NCCCOC(C)C)c(=O)c2cc(S(=O)(=O)N(C)C3CCCCC3)ccc21 -23.7%
Cc1ccc(C)c(N2CCN(S(=O)(=O)c3ccc4c(c3)n(C)c(=O)c(=O)n4C)CC2)c1 -9.41%
O=C(NCc1ccccc1)c1ccc(Cn2c(=O)c3cccn3c3cccnc32)cc1 0.626%
COc1cc(OC)c(NC(=O)CSCc2nc(-c3ccc(OC)c(OC)c3)no2)cc1Cl -0.16%
COCCCC/C(=N\OCCN)c1ccc(C(F)(F)F)cc1 -6.75%
O=C(Nc1cc(-c2nc3cc(Cl)ccc3o2)ccc1Cl)c1cc2ccccc2o1 7.77%
Cc1nn(-c2ccc(F)cc2)c(-n2cccc2)c1C(=O)N1CCN(c2ccccc2F)CC1 -12.6%
O=C(Nc1c(-c2ccc(F)cc2)nc2ccccn12)c1cccc(F)c1 -2.07%
Cc1c(C(=O)Nc2ccc(F)c(F)c2)oc2ccc(S(=O)(=O)N3CCC4(CC3)OCCO4)cc12 -11.3%
CC(=O)Nc1ccc(NS(=O)(=O)c2ccc(Cl)s2)cc1 -12.3%
